Data taken from the supplement of paper PMC10369915.
This is one part of the list. Cut-off read from the data, not from the text of the source: active = 3.2 or more and inactive = the rest. Only a few entries rise above the background.

B1: SLC20A2_Y187 (peptide)
chain: ALPVFYAATIA
B2: SLC20A2_Y377 (peptide)
chain: AQESNYRLLRR
B3: SLC20A2_Y386 (peptide)
chain: RRNNSYTCYTA
B4: SLC20A2_Y386_R382Q_YF (peptide)
chain: RQNNSYTCFTA
B5: SLC20A2_Y386_YF (peptide)
chain: RRNNSYTCFTA
B6: SLC20A2_Y436_S434W (peptide)
chain: DSYWSYCNAVA
B7: SLC22A5_Y486 (peptide)
chain: VYLGAYDRFLP
B8: SLC22A5_Y486_R488H_YF (peptide)
chain: VFLGAYDHFLP
B9: SLC22A5_Y486_V481F (peptide)
chain: FYLGAYDRFLP
B10: SLC22A5_Y486_V481F_YF (peptide)
chain: FFLGAYDRFLP
B11: SLC22A5_Y486_V481I_YF (peptide)
chain: IFLGAYDRFLP
B12: SLC25A4_Y112 (peptide)
chain: KQFWRYFAGNL
B13: SLC25A4_Y187 (peptide)
chain: QGIIIYRAAYF
B14: SLC25A4_Y187_YF (peptide)
chain: QGIIIYRAAFF
B15: SLC25A5_Y112 (peptide)
chain: TQFWLYFAGNL
B16: SLC26A3_Y520_Y520C (peptide)
chain: GRTNICKNKKD
B17: SLC26A3_Y526 (peptide)
chain: KNKKDYYDMYE
B18: SLC27A4_Y243_S247P_YF (peptide)
chain: TDKLFYIFTPG

Target: SHP2 C-SH2 domain E139D
Assay: enrichment score (SH2-bound / input frequency) (ratio); bacterial display of known human phosphotyrosine sites (pTyr-Var adds point mutants) read by sequencing; higher = stronger binding; tyrosines were phosphorylated by kinases first
Settings: peptide library: pTyr-Var
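Note: displayed peptides selected on beads carrying the immobilized SH2 domain, with library peptides lacking any tyrosine serving as negative controls.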

Enrichment score, inactive:
B1 0.695
B2 0.228
B3 0.333
B4 0.83
B5 0.586
B6 0.9
B7 1.06
B8 1.27
B9 2.24
B10 2.65
B11 1.9
B12 1.42
B13 0.515
B14 0.527
B15 1.05
B16 1.76
B17 0.786
B18 0.766

Target: SHP2 C-SH2 domain wild-type
Assay: as above
Settings: peptide library: pTyr-Var

Enrichment score, inactive:
B1 0.874
B2 0.227
B3 0.328
B4 0.757
B5 0.397
B6 0.85
B7 1.66
B8 1.25
B9 1.63
B10 2.7
B11 1.85
B12 0.981
B13 0.891
B14 0.639
B15 1.69
B16 1.59
B17 0.713
B18 0.881

Target: SHP2 N-SH2 domain L43F
Assay: as above
Settings: peptide library: pTyr-Var

Enrichment score, inactive:
B1 0.79
B2 0.258
B3 0.19
B4 0.583
B5 0.23
B6 0.638
B7 0.954
B8 1.23
B9 1.91
B10 2.49
B11 1.94
B12 1.07
B13 0.963
B14 0.4
B15 0.858
B16 1.55
B17 0.588
B18 0.698

Target: SHP2 N-SH2 domain T42A
Assay: as above
Settings: peptide library: pTyr-Var

Enrichment score, inactive:
B1 1.68
B2 0.202
B3 0.282
B4 0.572
B5 0.382
B6 0.806
B7 1.02
B8 1.28
B9 2.03
B10 2.44
B11 1.88
B12 1.06
B13 1.07
B14 0.507
B15 1.04
B16 1.34
B17 0.502
B18 0.732

Target: SHP2 N-SH2 domain T52S
Assay: as above
Settings: peptide library: pTyr-Var

Enrichment score, inactive:
B1 0.902
B2 0.242
B3 0.44
B4 0.613
B5 0.358
B6 0.809
B7 0.903
B8 1.23
B9 1.83
B10 2.42
B11 1.73
B12 1.17
B13 1.05
B14 0.66
B15 1.06
B16 1.78
B17 0.896
B18 0.948

Target: SHP2 N-SH2 domain wild-type
Assay: as above
Settings: peptide library: pTyr-Var

Enrichment score, inactive:
B1 0.871
B2 0.175
B3 0.264
B4 0.563
B5 0.404
B6 1
B7 1.24
B8 1.19
B9 1.85
B10 2.6
B11 1.75
B12 0.93
B13 0.83
B14 0.885
B15 1.58
B16 1.53
B17 0.853
B18 0.774
